The record followed here is PMC4336329 (PLoS ONE, 2015).

Molecules are shown by their SMILES. Hit rate of the full screen: of about 310,000 compounds, about 2,200 (0.71%) showed an effect of 50% or more. Effects have a minus sign here. The list shows a part of the results.

The target in this experiment is human ether-à-go-go-related gene (hERG) potassium channel (human, UniProt Q12809). In words: primary screen, population patch clamp on CHO cells stably expressing hERG.
Chain of human ether-à-go-go-related gene (hERG) potassium channel (Q12809 whole entry, looked up): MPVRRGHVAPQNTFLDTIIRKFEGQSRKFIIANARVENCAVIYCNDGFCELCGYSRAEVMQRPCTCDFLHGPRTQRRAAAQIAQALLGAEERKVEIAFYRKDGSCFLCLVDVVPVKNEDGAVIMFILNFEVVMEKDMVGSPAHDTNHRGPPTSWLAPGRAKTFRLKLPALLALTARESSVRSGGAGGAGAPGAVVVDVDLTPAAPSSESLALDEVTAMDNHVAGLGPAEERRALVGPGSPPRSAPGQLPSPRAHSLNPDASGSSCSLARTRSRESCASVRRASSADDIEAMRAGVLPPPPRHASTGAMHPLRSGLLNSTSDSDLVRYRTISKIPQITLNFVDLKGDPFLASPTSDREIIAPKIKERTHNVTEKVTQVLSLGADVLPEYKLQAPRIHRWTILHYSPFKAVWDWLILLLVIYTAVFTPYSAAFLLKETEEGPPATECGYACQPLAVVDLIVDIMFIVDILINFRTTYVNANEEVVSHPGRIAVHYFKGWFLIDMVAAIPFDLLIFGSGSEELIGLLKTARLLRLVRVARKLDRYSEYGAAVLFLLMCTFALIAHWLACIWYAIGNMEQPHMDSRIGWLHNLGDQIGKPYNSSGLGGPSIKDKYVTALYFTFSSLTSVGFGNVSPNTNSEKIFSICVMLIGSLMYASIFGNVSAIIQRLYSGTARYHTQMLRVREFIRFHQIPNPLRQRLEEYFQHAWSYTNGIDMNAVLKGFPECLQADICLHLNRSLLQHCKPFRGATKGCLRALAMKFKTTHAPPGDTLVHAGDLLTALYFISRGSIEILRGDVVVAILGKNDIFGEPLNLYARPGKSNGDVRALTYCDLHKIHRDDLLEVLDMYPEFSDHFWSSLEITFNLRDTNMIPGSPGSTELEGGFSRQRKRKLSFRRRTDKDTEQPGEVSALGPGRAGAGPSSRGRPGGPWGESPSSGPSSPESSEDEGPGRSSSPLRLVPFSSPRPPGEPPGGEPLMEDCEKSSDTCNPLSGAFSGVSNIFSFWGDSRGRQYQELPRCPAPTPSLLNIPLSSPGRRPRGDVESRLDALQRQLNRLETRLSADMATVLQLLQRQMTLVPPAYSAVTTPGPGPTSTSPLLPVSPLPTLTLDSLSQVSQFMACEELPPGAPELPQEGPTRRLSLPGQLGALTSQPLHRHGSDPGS
Turning to `Cn1c(O)c(C=Nc2ccccc2-c2ccccc2)c(=O)n(C)c1=O`, the “hERG current change (%, negative = inhibition) at 1uM” value was found to be 16.4%.

Turning to `Cc1nc2ccccc2c(=O)n1NC(=O)COc1ccccc1`, the “hERG current change (%, negative = inhibition) at 1uM” value was determined as 5.37%.

As for `c1ccc2cc(CN3CCOCC3)ccc2c1`, the “hERG current change (%, negative = inhibition) at 1uM” value is on record as 10.9%.

Take `CC[C@H](C)[C@@H](C(=O)NCCCCCCCCCCC(=O)N1CCNCC1)n1cc(CCCCN=C(N)N)nn1`: the “hERG current change (%, negative = inhibition) at 1uM” value was found to be 13.5%.

For `COc1ccc(/C=N/NC(=O)c2ccccc2O)cc1COc1ccccn1`, the “hERG current change (%, negative = inhibition) at 1uM” value is recorded as 2.06%.

Turning to `O=C(N/N=C/c1cccs1)c1cc(-c2ccncc2)nc2ccccc12`, the “hERG current change (%, negative = inhibition) at 1uM” value was 18.6%.

In the case of `COc1ccc(C2C(C(=O)Nc3ccccc3)=C(C)N=C3SCC(=O)N32)cc1` (stereo not drawn), the “hERG current change (%, negative = inhibition) at 1uM” value came out at 4.83%.

With `Cc1onc(-c2ccccc2Cl)c1C(=O)OCC(=O)Nc1cccc(S(=O)(=O)N(C)C)c1`, the “hERG current change (%, negative = inhibition) at 1uM” value is 7.33%.

Regarding `CCOC(=O)N1CCN(c2cc(N)c([N+](=O)[O-])cc2F)CC1`, the “hERG current change (%, negative = inhibition) at 1uM” value is 0.288%.

For the compound `COc1ccc(NC(=O)C(c2cc3c(cc2[N+](=O)[O-])OCO3)N(C)C)cc1` (stereo not drawn), the “hERG current change (%, negative = inhibition) at 1uM” value is given as 0.793%.

`O=[N+]([O-])c1ccc(CSc2ccc(S(=O)(=O)N3CCCC3)cn2)cc1`: the “hERG current change (%, negative = inhibition) at 1uM” value was -3.77%.

Regarding `O=C1CC(C(=O)N(c2ccc(F)cc2)C(C(=O)NC2CCCC2)c2ccccn2)CS1` (stereo not drawn), the “hERG current change (%, negative = inhibition) at 1uM” value is recorded as 3.1%.

With `Cc1cc(C)nc(/N=C2\NC(=O)CC(C(=O)O)N2c2ccc(C)c(C)c2)n1` (stereo not drawn), the “hERG current change (%, negative = inhibition) at 1uM” value is listed as 11.7%.

Take `O=C(CNc1cccc(S(=O)(=O)N2CCCC2)c1)Nc1cccc(F)c1`: the “hERG current change (%, negative = inhibition) at 1uM” value is reported as -2.43%.

Regarding `O=C(CCl)N1CCN(S(=O)(=O)c2ccc3ccccc3c2)CC1`, the “hERG current change (%, negative = inhibition) at 1uM” value worked out at 7.26%.

In the case of `Cc1ccc(C(=O)OCC(=O)N2CCC(Cc3ccccc3)CC2)cc1N`, the “hERG current change (%, negative = inhibition) at 1uM” value came to 10.6%.

With `O=C(CSc1nncn1-c1ccccc1)Nc1ccccc1F`, the “hERG current change (%, negative = inhibition) at 1uM” value was found to be 12.3%.

Take `O=C1CC(c2ccccc2)C(C(=O)Nc2ccccc2F)N1` (stereo not drawn): the “hERG current change (%, negative = inhibition) at 1uM” value came to 10.6%.

Regarding `Cc1ccccc1OCC(=O)NCCc1nc2ccccc2[nH]1`, the “hERG current change (%, negative = inhibition) at 1uM” value is reported as -4.84%.

As for `Cc1ccc2c(CN(C)Cc3cccc(F)c3)cc(=O)oc2c1`, the “hERG current change (%, negative = inhibition) at 1uM” value was determined as 5.95%.

Regarding `CC(C)(C)CC(C)(C)NCC(=O)Nc1c2c(nc3ccccc13)CCC2.O=C(O)C(=O)O`, the “hERG current change (%, negative = inhibition) at 1uM” value is listed as 6.56%.

For the compound `CCN1CCN(C(=O)C(C)Nc2cc(Cl)c(OC)cc2OC)CC1` (stereo not drawn), the “hERG current change (%, negative = inhibition) at 1uM” value amounted to 17.8%.

Turning to `CN(C)c1ccc(NC(=O)CCCCCn2nnc3ccccc3c2=O)cc1`, the “hERG current change (%, negative = inhibition) at 1uM” value amounted to 11.4%.

`c1csc(-c2noc(CN3CCc4sccc4C3)n2)c1`: the “hERG current change (%, negative = inhibition) at 1uM” value is 20%.
